We go through one molecule from the supplement of paper PMC8728848.

What all share (experiment): glycan array binding signal (z-score within array); higher = stronger binding
Conditions in all cases: glycan notation: IUPAC condensed, linker removed

Test [1] concerns the target Gal(b1-4)GlcNAc(b1-2)[Gal(b1-4)GlcNAc(b1-6)]Man(a1-6)[Gal(b1-4)GlcNAc(b1-2)Man(a1-3)]Man(b1-4)GlcNAc(b1-4)[Fuc(a1-6)]GlcNAc. Summed up: (§1)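 Glycan array data came from 3228 arrays in the Consortium for Functional Glycomics database, and only arrays with an available protein sequence were kept. Glycan names were put into IUPAC-condensed notation, and columns mapping to the same glycan were averaged. The binding signal is a within-array Z-score, averaged across arrays of one protein sequence run at different concentrations or buffers and across linkers. A negative Z-score can be read as non-binding.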

Test [2] concerns the target Gal(b1-4)GlcNAc(b1-2)[Gal(b1-4)GlcNAc(b1-6)]Man(a1-6)[GlcNAc(b1-4)][Gal(b1-4)GlcNAc(b1-2)Man(a1-3)]Man(b1-4)GlcNAc(b1-4)GlcNAc. Summed up:
as §1

Test [3] has as its target Gal(b1-4)GlcNAc(b1-2)[Gal(b1-4)GlcNAc(b1-6)]Man(a1-6)[GlcNAc(b1-4)][Gal(b1-4)GlcNAc(b1-2)[Gal(b1-4)GlcNAc(b1-4)]Man(a1-3)]Man(b1-4)GlcNAc(b1-4)[Fuc(a1-6)]GlcNAc. The method in brief: as §1
For test [4], the target named is Gal(b1-4)GlcNAc(b1-3)Gal(b1-3)GalNAc. The method in brief:
as §1

The target of test [5] is Gal(b1-4)GlcNAc(b1-3)Gal(b1-3)GlcNAc. Summed up: as §1
Test [6] concerns the target Gal(b1-4)GlcNAc(b1-3)Gal(b1-4)Glc. Summed up: as §1
For test [7], the target named is Gal(b1-4)GlcNAc(b1-3)Gal(b1-4)GlcNAc. Summed up:
as §1

In test [8] the target is Gal(b1-4)GlcNAc(b1-3)Gal(b1-4)GlcNAc(b1-2)Man(a1-3)[Gal(b1-4)GlcNAc(b1-3)Gal(b1-4)GlcNAc(b1-2)Man(a1-6)]Man(b1-4)GlcNAc(b1-4)GlcNAc. Summed up:
as §1

Test [9] has as its target Gal(b1-4)GlcNAc(b1-3)Gal(b1-4)GlcNAc(b1-2)Man(a1-3)[Gal(b1-4)GlcNAc(b1-3)Gal(b1-4)GlcNAc(b1-2)Man(a1-6)]Man(b1-4)GlcNAc(b1-4)[Fuc(a1-6)]GlcNAc. Summed up:
as §1

The target of test [10] is Gal(b1-4)GlcNAc(b1-3)Gal(b1-4)GlcNAc(b1-2)[Gal(b1-4)GlcNAc(b1-3)Gal(b1-4)GlcNAc(b1-6)]Man(a1-6)[Gal(b1-4)GlcNAc(b1-3)Gal(b1-4)GlcNAc(b1-2)Man(a1-3)]Man(b1-4)GlcNAc(b1-4)GlcNAc. The method in brief:
as §1

Test [11] deals with Gal(b1-4)GlcNAc(b1-3)Gal(b1-4)GlcNAc(b1-2)[Gal(b1-4)GlcNAc(b1-3)Gal(b1-4)GlcNAc(b1-6)]Man(a1-6)[Gal(b1-4)GlcNAc(b1-3)Gal(b1-4)GlcNAc(b1-2)Man(a1-3)]Man(b1-4)GlcNAc(b1-4)[Fuc(a1-6)]GlcNAc. Summed up: as §1
For test [12], the target named is Gal(b1-4)GlcNAc(b1-3)Gal(b1-4)GlcNAc(b1-3)Gal(b1-4)GlcNAc. The method in brief: as §1
In test [13] the target is Gal(b1-4)GlcNAc(b1-3)Gal(b1-4)GlcNAc(b1-3)Gal(b1-4)GlcNAc(b1-2)Man(a1-3)[Gal(b1-4)GlcNAc(b1-3)Gal(b1-4)GlcNAc(b1-3)Gal(b1-4)GlcNAc(b1-2)Man(a1-6)]Man(b1-4)GlcNAc(b1-4)GlcNAc. The method in brief: as §1
Test [14] has as its target Gal(b1-4)GlcNAc(b1-3)Gal(b1-4)GlcNAc(b1-3)Gal(b1-4)GlcNAc(b1-2)Man(a1-3)[Gal(b1-4)GlcNAc(b1-3)Gal(b1-4)GlcNAc(b1-3)Gal(b1-4)GlcNAc(b1-2)Man(a1-6)]Man(b1-4)GlcNAc(b1-4)[Fuc(a1-6)]GlcNAc. Summed up: as §1
In test [15] the target is Gal(b1-4)GlcNAc(b1-3)Gal(b1-4)GlcNAc(b1-3)Gal(b1-4)GlcNAc(b1-2)[Gal(b1-4)GlcNAc(b1-3)Gal(b1-4)GlcNAc(b1-3)Gal(b1-4)GlcNAc(b1-6)]Man(a1-6)[Gal(b1-4)GlcNAc(b1-3)Gal(b1-4)GlcNAc(b1-3)Gal(b1-4)GlcNAc(b1-2)Man(a1-3)]Man(b1-4)GlcNAc(b1-4)[Fuc(a1-6)]GlcNAc. The method in brief: as §1
Test [16] deals with Gal(b1-4)GlcNAc(b1-3)Gal(b1-4)GlcNAc(b1-3)Gal(b1-4)GlcNAc(b1-3)Gal(b1-4)GlcNAc(b1-2)Man(a1-3)[Gal(b1-4)GlcNAc(b1-3)Gal(b1-4)GlcNAc(b1-3)Gal(b1-4)GlcNAc(b1-3)Gal(b1-4)GlcNAc(b1-2)Man(a1-6)]Man(b1-4)GlcNAc(b1-4)GlcNAc. Summed up:
as §1

For test [17], the target named is Gal(b1-4)GlcNAc(b1-3)Gal(b1-4)GlcNAc(b1-3)Gal(b1-4)GlcNAc(b1-3)Gal(b1-4)GlcNAc(b1-2)Man(a1-3)[Gal(b1-4)GlcNAc(b1-3)Gal(b1-4)GlcNAc(b1-3)Gal(b1-4)GlcNAc(b1-3)Gal(b1-4)GlcNAc(b1-2)Man(a1-6)]Man(b1-4)GlcNAc(b1-4)[Fuc(a1-6)]GlcNAc. Summed up:
as §1

Test [18] has as its target Gal(b1-4)GlcNAc(b1-3)Gal(b1-4)GlcNAc(b1-3)Gal(b1-4)GlcNAc(b1-3)Gal(b1-4)GlcNAc(b1-2)[Gal(b1-4)GlcNAc(b1-3)Gal(b1-4)GlcNAc(b1-3)Gal(b1-4)GlcNAc(b1-3)Gal(b1-4)GlcNAc(b1-6)]Man(a1-6)[Gal(b1-4)GlcNAc(b1-3)Gal(b1-4)GlcNAc(b1-3)Gal(b1-4)GlcNAc(b1-3)Gal(b1-4)GlcNAc(b1-2)Man(a1-3)]Man(b1-4)GlcNAc(b1-4)[Fuc(a1-6)]GlcNAc. Summed up: as §1
In test [19] the target is Gal(b1-4)GlcNAc(b1-3)Gal(b1-4)GlcNAc(b1-3)Gal(b1-4)GlcNAc(b1-3)Gal(b1-4)GlcNAc(b1-3)Gal(b1-4)GlcNAc(b1-2)Man(a1-3)[Gal(b1-4)GlcNAc(b1-3)Gal(b1-4)GlcNAc(b1-3)Gal(b1-4)GlcNAc(b1-3)Gal(b1-4)GlcNAc(b1-3)Gal(b1-4)GlcNAc(b1-2)Man(a1-6)]Man(b1-4)GlcNAc(b1-4)GlcNAc. The method in brief:
as §1

The target in test [20] is Gal(b1-4)GlcNAc(b1-3)Gal(b1-4)GlcNAc(b1-3)Gal(b1-4)GlcNAc(b1-3)Gal(b1-4)GlcNAc(b1-3)Gal(b1-4)GlcNAc(b1-2)Man(a1-3)[Gal(b1-4)GlcNAc(b1-3)Gal(b1-4)GlcNAc(b1-3)Gal(b1-4)GlcNAc(b1-3)Gal(b1-4)GlcNAc(b1-3)Gal(b1-4)GlcNAc(b1-2)Man(a1-6)]Man(b1-4)GlcNAc(b1-4)[Fuc(a1-6)]GlcNAc. Summed up:
as §1

Test [21] has as its target Gal(b1-4)GlcNAc(b1-3)Gal(b1-4)GlcNAc(b1-3)Gal(b1-4)GlcNAc(b1-3)Gal(b1-4)GlcNAc(b1-3)Gal(b1-4)GlcNAc(b1-2)[Gal(b1-4)GlcNAc(b1-3)Gal(b1-4)GlcNAc(b1-3)Gal(b1-4)GlcNAc(b1-3)Gal(b1-4)GlcNAc(b1-3)Gal(b1-4)GlcNAc(b1-6)]Man(a1-6)[Gal(b1-4)GlcNAc(b1-3)Gal(b1-4)GlcNAc(b1-3)Gal(b1-4)GlcNAc(b1-3)Gal(b1-4)GlcNAc(b1-3)Gal(b1-4)GlcNAc(b1-2)Man(a1-3)]Man(b1-4)GlcNAc(b1-4)[Fuc(a1-6)]GlcNAc. The method in brief:
as §1

For test [22], the target named is Gal(b1-4)GlcNAc(b1-3)Gal(b1-4)GlcNAc(b1-3)Gal(b1-4)GlcNAc(b1-3)Gal(b1-4)GlcNAc(b1-3)Gal(b1-4)GlcNAc(b1-3)Gal(b1-4)GlcNAc(b1-2)Man(a1-3)[Gal(b1-4)GlcNAc(b1-3)Gal(b1-4)GlcNAc(b1-3)Gal(b1-4)GlcNAc(b1-3)Gal(b1-4)GlcNAc(b1-3)Gal(b1-4)GlcNAc(b1-3)Gal(b1-4)GlcNAc(b1-2)Man(a1-6)]Man(b1-4)GlcNAc(b1-4)GlcNAc. The method in brief:
as §1

Test [23] deals with Gal(b1-4)GlcNAc(b1-3)Gal(b1-4)GlcNAc(b1-3)GalNAc. Summed up:
as §1

The list shows a part of the results.

B1: Mg1lysM (Mycosphaerella graminicola) (protein)
chain: QRNPITITPQFDCGATNSQQYVARSGDTLTKIAQEIYHDVVGVCDIARANNLADPNRIDAGTPYTIPINCQTYDRNSCL
As for B1, the “glycan array binding signal (z-score)” value in [1] was -0.034; in test [2] it was -0.059; in test [3], -0.058; in test [4], -0.077; in [5], -0.081; in test [6], -0.071. Also, the “glycan array binding signal (z-score)” value in test [7] was -0.08; in test [8] it was -0.056; in [9], -0.069; in [10] it was -0.063; in [11], -0.051; in test [12], -0.082. For the same molecule, the “glycan array binding signal (z-score)” value in test [13] was -0.073; in test [14], -0.06; in [15], -0.066; in test [16], -0.073; in test [17], -0.032; in test [18], -0.018. Further, the “glycan array binding signal (z-score)” value in [19] is -0.086; in test [20] it was -0.073; in test [21], -0.042; in test [22], -0.053; in test [23], -0.075.
